In all, about 3,200 compounds went through this assay and about 75 (2%) showed an effect of 50% or more. Some of the results follow.
What follows are compounds tested on T1, S. aureus MSSA476. Conditions: relative growth, OD600, TSB; 25 µM; inhibitor.
T1 construct: MSSA476
Design: species or system S. aureus MSSA476 (TSB) or V. cholerae SAD30 (LB); 384-well bacterial growth screen at 25 uM, OD600 relative to DMSO control

First: CC(CO)(Cc1ccc(F)cc1)NC(=O)CCl (stereo not drawn) [7-F06, 2-chloro-N-{2-[(4-fluorophenyl)methyl]-1-hydroxypropan-2-yl}acetamide]
Second: COc1ccc(CCNC(=O)CCl)cc1 [5-H12, 2-chloro-N-[2-(4-methoxyphenyl)ethyl]acetamide]
The “% of control remaining” value of the first is higher: 106.122% for the first, 102.732% for the second.

Going from `C=CC(=O)Nc1cc(C)c(CC)cc1OC` [3-O06, N-(4-ethyl-2-methoxy-5-methylphenyl)prop-2-enamide] to `COc1ccc(NC(C)=O)cc1NC(=O)CCl` [5-G03, 2-chloro-N-(5-acetamido-2-methoxyphenyl)acetamide], the “% of control remaining” value rises from 90.9012% to 93.9891%.

Compared with `C=CC(=O)N(C)Cc1cc(-c2ccccc2)[nH]n1` [1-B05, N-methyl-N-[(5-phenyl-1H-pyrazol-3-yl)methyl]prop-2-enamide], `O=C(CCl)NC1CCCc2nc(-c3ccccc3)sc21` (stereo not drawn) [7-B04, 2-chloro-N-(2-phenyl-4,5,6,7-tetrahydro-1,3-benzothiazol-7-yl)acetamide] is lower in “% of control remaining” value: 83.3407% for the first, 81.6327% for the second.

Going from `O=C(CCl)NC1CCCS(=O)(=O)c2ccccc21` (stereo not drawn) [6-O19, 2-chloro-N-(1,1-dioxo-2,3,4,5-tetrahydro-1lambda6-benzothiepin-5-yl)acetamide] to `Cl.O=C(CN1CCN(C(=O)CCl)CC1)Nc1cccc(F)c1` [5-P19, 2-[4-(2-chloroacetyl)piperazin-1-yl]-N-(3-fluorophenyl)acetamide hydrochloride], the “% of control remaining” value rises from 84% to 109.654%.

First: CC(Cl)C(=O)N1CCC(N(CC(F)(F)F)S(C)(=O)=O)CC1 (stereo not drawn) [7-C07, N-[1-(2-chloropropanoyl)piperidin-4-yl]-N-(2,2,2-trifluoroethyl)methanesulfonamide]
Second: CC(Cl)C(=O)N1C2C=C(c3ccccc3)CC1CC2 (stereo not drawn) [7-C09, 2-chloro-1-{3-phenyl-8-azabicyclo[3.2.1]oct-2-en-8-yl}propan-1-one]
The “% of control remaining” value of the first is lower: 100.471% for the first, 113.972% for the second.

Compared with `C=CC(=O)N(CC)CC(=O)N1CCc2c(cccc2NC(C)=O)C1` [3-K16, N-[2-(5-acetamido-1,2,3,4-tetrahydroisoquinolin-2-yl)-2-oxoethyl]-N-ethylprop-2-enamide], `C=CC(=O)N1CC(OCc2ccccc2F)C1` [3-I15, 1-{3-[(2-fluorophenyl)methoxy]azetidin-1-yl}prop-2-en-1-one] is higher in “% of control remaining” value: 86.0253% for the first, 114.933% for the second.

First: N#CC(=Cc1ccc(F)c(F)c1)C(=O)NC1CCCCC1 [9-J22, 2-cyano-N-cyclohexyl-3-(3,4-difluorophenyl)prop-2-enamide]
Second: N#CC(=Cc1ccc([N+](=O)[O-])c(Cl)c1)C(=O)NC1CCCCC1 [8-B08, 3-(3-chloro-4-nitrophenyl)-2-cyano-N-cyclohexylprop-2-enamide]
The “% of control remaining” value of the first is higher: 94.0824% for the first, 29.8755% for the second.

First: CCCCNC(=O)C(C#N)=Cc1ccc(Cl)cc1Cl [9-O07, N-butyl-2-cyano-3-(2,4-dichlorophenyl)prop-2-enamide]
Second: CC(C)NC(=O)C(C#N)=Cc1ccc(Cl)cc1Cl [9-K07, 2-cyano-3-(2,4-dichlorophenyl)-N-(propan-2-yl)prop-2-enamide]
The “% of control remaining” value of the first is higher: 101.573% for the first, 75.8052% for the second.

Compared with `CCCn1c(C)cc(C=C(C#N)C(=O)Nc2ccc3c(c2)OCO3)c1C` [9-G07, N-(1,3-dioxaindan-5-yl)-2-cyano-3-(2,5-dimethyl-1-propyl-1H-pyrrol-3-yl)prop-2-enamide], `CCOc1ccc(C=C(C#N)C(=O)Nc2ccncc2)cc1` [8-I22, 2-cyano-3-(4-ethoxyphenyl)-N-(pyridin-4-yl)prop-2-enamide] is higher in “% of control remaining” value: 76.4045% for the first, 84.6473% for the second.

Going from `N#CC1=C(N2CCOCC2)SC(c2cccc([N+](=O)[O-])c2)NC1=O` (stereo not drawn) [9-L19, 6-(morpholin-4-yl)-2-(3-nitrophenyl)-4-oxo-3,4-dihydro-2H-1,3-thiazine-5-carbonitrile] to `O=C(CCl)NC1CCCN(c2cc(N3CCOCC3)ncn2)C1` (stereo not drawn) [4-N21, 2-chloro-N-{1-[6-(morpholin-4-yl)pyrimidin-4-yl]piperidin-3-yl}acetamide], the “% of control remaining” value falls from 94.9813% to 90.3287%.

First: N#CC(C(=O)CCl)=C1NC2=C(CCc3ccccc32)S1 [10-N10, 4-chloro-2-{1H,2H,4H,5H-naphtho[1,2-d][1,3]thiazol-2-ylidene}-3-oxobutanenitrile]
Second: O=C1CCc2cc(C(=O)CCl)c(F)cc2N1 [10-O20, 6-(2-chloroacetyl)-7-fluoro-1,2,3,4-tetrahydroquinolin-2-one]
The “% of control remaining” value of the first is higher: 59.6875% for the first, 3.75% for the second.

Going from `CN(C)C(=O)c1ccc(CNC(=O)CCl)cc1` [6-C16, 4-[(2-chloroacetamido)methyl]-N,N-dimethylbenzamide] to `COc1ccc(CCNC(=O)C(C)Cl)cc1` (stereo not drawn) [5-D12, 2-chloro-N-[2-(4-methoxyphenyl)ethyl]propanamide], the “% of control remaining” value falls from 116.78% to 107.104%.

First: Cc1cc(C(=O)CCl)c(C)n1CC1CCCO1 (stereo not drawn) [10-B08, 2-chloro-1-{2,5-dimethyl-1-[(oxolan-2-yl)methyl]-1H-pyrrol-3-yl}ethan-1-one]
Second: Cc1nc(C)c(C(=O)CCl)o1 [10-N08, 2-chloro-1-(2,4-dimethyl-1,3-oxazol-5-yl)ethan-1-one]
The “% of control remaining” value of the first is higher: 113.437% for the first, 108.125% for the second.

First: CCC(NC(=O)CCl)c1ccc(C)cc1 (stereo not drawn) [4-K17, 2-chloro-N-[1-(4-methylphenyl)propyl]acetamide]
Second: Cl.O=C(CN1CCN(C(=O)CCl)CC1)Nc1ccc(F)cc1 [4-J20, 2-[4-(2-chloroacetyl)piperazin-1-yl]-N-(4-fluorophenyl)acetamide hydrochloride]
The “% of control remaining” value of the first is lower: 108.623% for the first, 128.823% for the second.

First: C=CC(=O)N1CCC(C(=O)N[C@H]2CCC[C@H]2O)CC1 [2-K04, N-[(1S,2R)-2-hydroxycyclopentyl]-1-(prop-2-enoyl)piperidine-4-carboxamide]
Second: C=CC(=O)N1CCC(C(=O)N2CCC(c3ncco3)CC2)CC1 [2-B06, 1-{4-[4-(1,3-oxazol-2-yl)piperidine-1-carbonyl]piperidin-1-yl}prop-2-en-1-one]
The “% of control remaining” value of the first is higher: 111.053% for the first, 104.787% for the second.

Compared with `O=C(O)c1csc(C(=O)CCl)c1` [10-E22, 5-(2-chloroacetyl)thiophene-3-carboxylic acid], `O=C(CCl)c1ccc2[nH]c(=O)[nH]c2c1` [10-I14, 5-(2-chloroacetyl)-2,3-dihydro-1H-1,3-benzodiazol-2-one] is higher in “% of control remaining” value: 88.4375% for the first, 100.313% for the second.

Going from `Cc1cc(CN(Cc2ccn(C)n2)C(=O)CCl)ccc1F` [5-G14, 2-chloro-N-[(4-fluoro-3-methylphenyl)methyl]-N-[(1-methyl-1H-pyrazol-3-yl)methyl]acetamide] to `N#CC(=Cc1cccc(O)c1)C(=O)NCCc1ccccc1` [8-N03, 2-cyano-3-(3-hydroxyphenyl)-N-(2-phenylethyl)prop-2-enamide], the “% of control remaining” value rises from 96.5392% to 116.183%.

Going from `C=CC(=O)N1C2CCCC1CC1(C2)NC(=O)NC1=O` (stereo not drawn) [2-K06, 9-(prop-2-enoyl)-9-azaspiro[bicyclo[3.3.1]nonane-3,4'-imidazolidine]-2',5'-dione] to `C=CC(=O)N1CCC(c2ccnn2C)CC1` [2-I15, 1-[4-(1-methyl-1H-pyrazol-5-yl)piperidin-1-yl]prop-2-en-1-one], the “% of control remaining” value rises from 92.6023% to 108.616%.

Compared with `C=CC(=O)NC1CC(=O)N(CC)C1` (stereo not drawn) [2-O22, N-(1-ethyl-5-oxopyrrolidin-3-yl)prop-2-enamide], `C=CC(=O)N1CC(c2ncon2)C1` [2-I03, 1-[3-(1,2,4-oxadiazol-3-yl)azetidin-1-yl]prop-2-en-1-one] is higher in “% of control remaining” value: 93.2985% for the first, 118.016% for the second.

Compared with `C=CCNC(=O)C(C#N)=Cc1ccc(C#N)cc1` [8-O07, 2-cyano-3-(4-cyanophenyl)-N-(prop-2-en-1-yl)prop-2-enamide], `COCCNC(=O)C(C#N)=Cc1ccc(O)cc1` [9-D22, 2-cyano-3-(4-hydroxyphenyl)-N-(2-methoxyethyl)prop-2-enamide] is lower in “% of control remaining” value: 125.477% for the first, 77.0037% for the second.

Compared with `Cc1ccc(C=C(C#N)C(=O)NC(C)C)o1` [8-I21, 2-cyano-3-(5-methylfuran-2-yl)-N-(propan-2-yl)prop-2-enamide], `N#CC(=Cc1ccccc1)C(=O)Nc1nnn[nH]1` [8-J14, 2-cyano-3-phenyl-N-(1H-1,2,3,4-tetrazol-5-yl)prop-2-enamide] is higher in “% of control remaining” value: 80.332% for the first, 103.237% for the second.

Going from `CC(Cl)C(=O)N(Cc1cccs1)[C@@H]1C=C[C@H](CO)C1` (stereo partly drawn) [7-E14, 2-chloro-N-[(1S,4R)-4-(hydroxymethyl)cyclopent-2-en-1-yl]-N-[(thiophen-2-yl)methyl]propanamide] to `C=CC(=O)N(Cc1cc(F)c(F)c(F)c1)C(C)C1CCCO1` (stereo not drawn) [1-L13, N-[1-(oxolan-2-yl)ethyl]-N-[(3,4,5-trifluorophenyl)methyl]prop-2-enamide], the “% of control remaining” value rises from 102.669% to 106.901%.

With `C=CC(=O)NCCCn1ccnc1C#N` [2-N05, N-[3-(2-cyano-1H-imidazol-1-yl)propyl]prop-2-enamide] the “% of control remaining” value was 87.7285%.

From publication PMC11995724, “Antibiotic target discovery by integrated phenotypic and activity-based profiling of electrophilic fragments” (Cell chemical biology, 2025)
